# According to the BET-seq Pho4 binding data (Le et al. 2018):
# The list shows a part of the results. Values were computed here from the reads of four pooled replicates and scatter widely.
# Target: T1, Pho4 (S. cerevisiae) (UniProt P07270)
# T1 sequence: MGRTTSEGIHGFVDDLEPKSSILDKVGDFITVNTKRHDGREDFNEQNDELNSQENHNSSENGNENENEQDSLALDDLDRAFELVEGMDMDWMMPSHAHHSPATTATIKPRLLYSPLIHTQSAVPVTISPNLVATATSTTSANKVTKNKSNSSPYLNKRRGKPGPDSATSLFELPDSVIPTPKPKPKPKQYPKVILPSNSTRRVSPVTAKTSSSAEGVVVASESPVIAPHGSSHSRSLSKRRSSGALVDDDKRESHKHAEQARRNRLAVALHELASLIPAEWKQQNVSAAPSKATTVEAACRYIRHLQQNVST
# Test: relative binding free energy (BET-seq); higher = weaker binding
# Conditions: reference: library average
row,Sequence,relative binding free energy
1,TTTGTCACGTGTCTAA,0.09 kcal/mol
2,GAGGGCACGTGGAATA,-0.01 kcal/mol
3,TGTGCCACGTGAGGGG,0.11 kcal/mol
4,GGTGGCACGTGAAGCT,0.3 kcal/mol
5,AGGTGCACGTGGGAGA,-0.12 kcal/mol
6,TTTGGCACGTGAAAGG,0.32 kcal/mol
7,CTTGGCACGTGATTTT,-0.08 kcal/mol
8,GTGGTCACGTGGTTCA,0 kcal/mol
9,GCCGGCACGTGGAGTG,-0.08 kcal/mol
10,AAGTTCACGTGATGTA,0.25 kcal/mol
11,CGTAGCACGTGGCGTG,-0.2 kcal/mol
12,CGGCGCACGTGGCGGG,-0.29 kcal/mol
13,TTTGACACGTGAGGAG,0.2 kcal/mol
14,TTCGTCACGTGAGATA,0.44 kcal/mol
15,CCGTCCACGTGTGGGG,0.12 kcal/mol
16,GGGATCACGTGTAGAA,0.28 kcal/mol
17,TGTGACACGTGCTGTA,-0.14 kcal/mol
18,AGTAACACGTGTTGAA,-0.01 kcal/mol
19,GAATTCACGTGTAGGA,0.31 kcal/mol
20,TGTAACACGTGGTCTG,-0.16 kcal/mol
21,GGGAGCACGTGCGGCG,-0.06 kcal/mol
22,CGATGCACGTGTTGAG,0.06 kcal/mol
23,TTCTACACGTGAGGTG,0.1 kcal/mol
24,AGAGGCACGTGAGTAG,0.09 kcal/mol
25,GTGGACACGTGAGAGT,0.32 kcal/mol
26,GGTAGCACGTGAGAGG,0.15 kcal/mol

row,Sequence,relative binding free energy
1,GTGATCACGTGGATCG,0.16 kcal/mol
2,GGGGACACGTGGGCAT,-0.02 kcal/mol
3,CAGGTCACGTGTGCGT,-0.02 kcal/mol
4,GTATCCACGTGTTTTT,0.06 kcal/mol
5,TAAGTCACGTGTACAT,0.13 kcal/mol
6,TGGAGCACGTGTTGGG,-0.02 kcal/mol
7,GTGTGCACGTGGTACA,0.02 kcal/mol
8,GTTGTCACGTGCTATT,0.18 kcal/mol
9,CGTGACACGTGTCTGG,0.05 kcal/mol
10,AGGGCCACGTGTGTGA,-0.17 kcal/mol
11,TCTTGCACGTGTGGGG,0.07 kcal/mol
12,CATGTCACGTGGGCGT,-0.04 kcal/mol
13,GGTTGCACGTGTCTGC,0.17 kcal/mol
14,GCAGGCACGTGATGTT,0.12 kcal/mol
15,GGGCACACGTGTTGGT,0.24 kcal/mol
16,TCTGGCACGTGTATGT,-0.1 kcal/mol
17,AAGGACACGTGGTGAT,-0.1 kcal/mol
18,GGATCCACGTGGTAGG,0.14 kcal/mol
19,TAGTTCACGTGGGTAA,0.14 kcal/mol
20,TGTTACACGTGAGACG,0.36 kcal/mol
21,GACTTCACGTGTGTTT,0.3 kcal/mol
22,GTGTGCACGTGGGGAA,-0.02 kcal/mol
23,TTTTTCACGTGAGACA,0.38 kcal/mol
24,TCAATCACGTGGTTTT,0.16 kcal/mol
25,AGCTACACGTGGTGTA,-0.01 kcal/mol
26,ATGGGCACGTGAGTTA,0.03 kcal/mol

row,Sequence,relative binding free energy
1,CTTGTCACGTGGTAGG,0.04 kcal/mol
2,CAGATCACGTGGTTTG,0.1 kcal/mol
3,ATTTGCACGTGTAGCG,0.16 kcal/mol
4,GGGTGCACGTGGCTAA,-0.07 kcal/mol
5,TGTTACACGTGGGCCT,0.1 kcal/mol
6,AAGGCCACGTGGTTAG,-0.13 kcal/mol
7,TGGTCCACGTGCTGGG,-0.05 kcal/mol
8,AGGCGCACGTGGCGTG,-0.36 kcal/mol
9,GGCGTCACGTGATGGA,0.32 kcal/mol
10,TGTAGCACGTGTATGC,0 kcal/mol
11,GGTCTCACGTGTGGCG,0.17 kcal/mol
12,TGTGTCACGTGCCAGG,0.03 kcal/mol
13,GAAAACACGTGTTAGG,0.22 kcal/mol
14,GTTACCACGTGTGATT,0.11 kcal/mol
15,AGTTTCACGTGTGCAT,0.24 kcal/mol
16,ATCGTCACGTGTATTA,0.22 kcal/mol
17,TGTTTCACGTGCTGAG,0.27 kcal/mol
18,ATGGACACGTGGTCAG,-0.06 kcal/mol
19,AATGTCACGTGTGAGC,0.09 kcal/mol
20,AAATTCACGTGAGGGG,0.52 kcal/mol
21,AATTACACGTGGAAGG,0.22 kcal/mol
22,GAGGGCACGTGTTCAA,0.17 kcal/mol
23,TTGTACACGTGGATGC,-0.01 kcal/mol
24,TGGGTCACGTGACATG,0.18 kcal/mol
25,TGTCTCACGTGTCTTG,0.14 kcal/mol
26,GAGGGCACGTGGTAGT,-0.09 kcal/mol

row,Sequence,relative binding free energy
1,ACGGTCACGTGGATTG,0.14 kcal/mol
2,TATTTCACGTGGGCGC,0.27 kcal/mol
3,ATTGGCACGTGGCTGG,-0.11 kcal/mol
4,TGCAGCACGTGGTGAA,-0.14 kcal/mol
5,GGAGGCACGTGGGTTC,-0.14 kcal/mol
6,GGGGACACGTGGACTG,0.1 kcal/mol
7,TGTAACACGTGCATTG,-0.09 kcal/mol
8,TTTCGCACGTGATTCG,0.15 kcal/mol
9,AGTTGCACGTGGCTAG,-0.06 kcal/mol
10,GCATTCACGTGTGCGT,0.28 kcal/mol
11,TTTGACACGTGGAAGG,0.04 kcal/mol
12,TGAGTCACGTGGCTCG,0.07 kcal/mol
13,GCTTACACGTGGGGTT,-0.05 kcal/mol
14,AGTTACACGTGATAAA,0.28 kcal/mol
15,GTAGGCACGTGTTTAA,0.06 kcal/mol
16,TACGACACGTGTTGGA,0.03 kcal/mol
17,ATAGGCACGTGGTTTT,-0.23 kcal/mol
18,AGTTTCACGTGGCATG,0.16 kcal/mol
19,TTGGGCACGTGGATAC,-0.17 kcal/mol
20,AGTAACACGTGGTGAG,-0.13 kcal/mol
21,TCTGGCACGTGCTTTT,-0.05 kcal/mol
22,TTGTCCACGTGTGATG,0.14 kcal/mol
23,GAAGTCACGTGTGTCT,0.3 kcal/mol
24,TAGGTCACGTGCATGG,0.07 kcal/mol
25,GAGTGCACGTGGGCGG,-0.08 kcal/mol
26,TTGATCACGTGTAAGA,0.13 kcal/mol

row,Sequence,relative binding free energy
1,AGCGTCACGTGTGATG,-0.06 kcal/mol
2,TAAATCACGTGAGGAG,0.33 kcal/mol
3,AGTCGCACGTGTCGGT,0.02 kcal/mol
4,TGATACACGTGCGTGG,-0.05 kcal/mol
5,TAGGTCACGTGAATGG,0.34 kcal/mol
6,TGCCACACGTGGGTGT,-0.12 kcal/mol
7,TTATACACGTGAGGAG,0.15 kcal/mol
8,ACGTACACGTGGTGTA,-0.02 kcal/mol
9,GAGAGCACGTGTCGGG,-0.17 kcal/mol
10,TACGTCACGTGTATAG,0.03 kcal/mol
11,GGTATCACGTGAGTTA,0.25 kcal/mol
12,GAGTCCACGTGGTTAG,0.21 kcal/mol
13,AGAGGCACGTGTCTTG,0.06 kcal/mol
14,GGGGTCACGTGCCTTT,0.12 kcal/mol
15,TGGTTCACGTGGTGAA,0.27 kcal/mol
16,TTAATCACGTGGATGT,0.13 kcal/mol
17,GTAGTCACGTGGCGTT,0.07 kcal/mol
18,GTTGGCACGTGTGCAG,-0.02 kcal/mol
19,CAGATCACGTGGGGCT,0.06 kcal/mol
20,GTGCGCACGTGATTGT,0.07 kcal/mol
21,GCGGGCACGTGGTAGG,-0.23 kcal/mol
22,AGGTTCACGTGTTGCT,0.13 kcal/mol
23,TGTTACACGTGGAAGG,0.25 kcal/mol
24,GAGTGCACGTGGTTTC,-0.03 kcal/mol
25,TGATACACGTGGTCGT,-0.06 kcal/mol
26,GGTGGCACGTGGTGTT,0.02 kcal/mol

row,Sequence,relative binding free energy
1,TTGCCCACGTGTGTTG,-0.02 kcal/mol
2,AGAGTCACGTGTTTAG,0.19 kcal/mol
3,GCGTGCACGTGATAGT,0.18 kcal/mol
4,AGGGGCACGTGTTTGG,-0.11 kcal/mol
5,GTGTTCACGTGAAGGA,0.36 kcal/mol
6,GATGTCACGTGTTTAT,0.12 kcal/mol
7,CTGGACACGTGGAGTG,-0.02 kcal/mol
8,TTGTGCACGTGTGCGT,-0.01 kcal/mol
9,TTATTCACGTGATATG,0.24 kcal/mol
10,GGGATCACGTGAAGGT,0.31 kcal/mol
11,TTCAGCACGTGGGGGA,-0.2 kcal/mol
12,ATAGACACGTGGGTGT,-0.06 kcal/mol
13,TATTCCACGTGTAAGG,0.2 kcal/mol
14,GTTCTCACGTGTAGGA,0.37 kcal/mol
15,CAGTGCACGTGTTGGA,0.01 kcal/mol
16,GCGTTCACGTGAGAGT,0.3 kcal/mol
17,GGGTGCACGTGACGTA,0.17 kcal/mol
18,AAGAACACGTGTTTGT,0.01 kcal/mol
19,GTAGTCACGTGGGAGT,0.1 kcal/mol
20,GTTTTCACGTGCGATA,0.3 kcal/mol
21,TTGAGCACGTGTGGGT,-0.02 kcal/mol
22,TTTTACACGTGTATTA,0.08 kcal/mol
23,TGTCGCACGTGTCGGG,-0.02 kcal/mol
24,GGGTTCACGTGATTTT,0.48 kcal/mol
25,TGGATCACGTGGCCGG,0 kcal/mol
26,CAGGTCACGTGTATTG,0.14 kcal/mol

row,Sequence,relative binding free energy
1,TTGCACACGTGTTGAG,0.1 kcal/mol
2,GGAAGCACGTGGCAGT,-0.15 kcal/mol
3,GGTCACACGTGGCGGT,0.05 kcal/mol
4,GGGGGCACGTGGCCTG,-0.41 kcal/mol
5,TGTTTCACGTGAGGAG,0.36 kcal/mol
6,CGGAGCACGTGCGGGA,0.03 kcal/mol
7,GAAGTCACGTGTTATG,0.14 kcal/mol
8,TGTGCCACGTGTGTGG,-0.09 kcal/mol
9,TCTTACACGTGTATTG,0.03 kcal/mol
10,AACAGCACGTGTTTGT,-0.07 kcal/mol
11,CTATTCACGTGTGGAG,0.22 kcal/mol
12,CTGCGCACGTGGGGGC,-0.37 kcal/mol
13,TGAGGCACGTGGTTTG,0 kcal/mol
14,AGGGGCACGTGTTATC,-0.09 kcal/mol
15,TGTTGCACGTGCGATG,0.02 kcal/mol
16,TGAGGCACGTGGGCAC,-0.11 kcal/mol
17,CTATGCACGTGTTTAG,0.01 kcal/mol
18,GTCGGCACGTGGGCTT,-0.02 kcal/mol
19,TGTTACACGTGGAGGT,0.03 kcal/mol
20,GGCGGCACGTGAGAGC,0.35 kcal/mol
21,GCGGTCACGTGTATAG,0.09 kcal/mol
22,GGTTTCACGTGTAGCT,0.3 kcal/mol
23,AGTGGCACGTGACGTT,-0.05 kcal/mol
24,CTTGACACGTGGCGTG,-0.16 kcal/mol
25,GAGTACACGTGCTGGT,0.05 kcal/mol
26,TAAAGCACGTGGGGTC,-0.15 kcal/mol

row,Sequence,relative binding free energy
1,GTGATCACGTGGGCTG,0.05 kcal/mol
2,TGTTTCACGTGAAGGT,0.38 kcal/mol
3,GGGGTCACGTGTAGTG,0.17 kcal/mol
4,TTTTCCACGTGGATTG,0.09 kcal/mol
5,GCGGGCACGTGTGGAG,0.03 kcal/mol
6,GGGAGCACGTGGCGAG,-0.2 kcal/mol
7,TTCTGCACGTGTGTGG,0.06 kcal/mol
8,GGTAACACGTGGTTAG,-0.14 kcal/mol
9,TGGGGCACGTGTAATG,0.11 kcal/mol
10,CTATGCACGTGGGATT,-0.19 kcal/mol
11,GTTGTCACGTGGTCGT,0.07 kcal/mol
12,AATAGCACGTGGGCGT,-0.35 kcal/mol
13,CCTTGCACGTGTTAGT,-0.03 kcal/mol
14,GGGCGCACGTGGCCGG,-0.16 kcal/mol
15,GGCGGCACGTGTAATT,0.11 kcal/mol
16,TGTTTCACGTGGACGT,0.36 kcal/mol
17,TTGATCACGTGTGGTC,0.21 kcal/mol
18,TGTACCACGTGTTTGT,-0.03 kcal/mol
19,GGGGGCACGTGTCAGA,-0.15 kcal/mol
20,GGTTTCACGTGTGGCC,0.39 kcal/mol
21,GCGTGCACGTGGGTGA,-0.1 kcal/mol
22,GATGGCACGTGGTTGT,-0.1 kcal/mol
23,TTTACCACGTGGTTGG,-0.13 kcal/mol
24,GGTGTCACGTGGATCT,0.24 kcal/mol
25,CTTTTCACGTGTTGTC,0.27 kcal/mol
26,TTTCTCACGTGGTTGC,0.2 kcal/mol

row,Sequence,relative binding free energy
1,GCTGGCACGTGTGTGC,-0.01 kcal/mol
2,TGAGTCACGTGAGGTG,0.28 kcal/mol
3,GGGTTCACGTGCGGGA,0.32 kcal/mol
4,GGGCTCACGTGTGTGC,0.16 kcal/mol
5,TGTTTCACGTGGAAGA,0.29 kcal/mol
6,GCGGTCACGTGTGGCG,0.16 kcal/mol
7,TTTCGCACGTGGAGCG,0.07 kcal/mol
8,TTGGGCACGTGCCGCG,-0.21 kcal/mol
9,AATAGCACGTGGTGGT,-0.16 kcal/mol
10,GGAAGCACGTGGATAT,0 kcal/mol
11,CGTATCACGTGTGATA,0.13 kcal/mol
12,TGGGACACGTGCGTAG,-0.01 kcal/mol
13,GTCGGCACGTGACGGG,0.2 kcal/mol
14,TAGCTCACGTGGTTCG,0.23 kcal/mol
15,AGCGGCACGTGGGTAG,-0.19 kcal/mol
16,ATAGGCACGTGCGCAG,-0.11 kcal/mol
17,GAGGTCACGTGGGAAT,0.21 kcal/mol
18,TATATCACGTGGGAGA,-0.04 kcal/mol
19,GGCATCACGTGGCGTT,0.14 kcal/mol
20,CGAAACACGTGGGTGT,-0.11 kcal/mol
21,AGGGACACGTGCTGGT,-0.09 kcal/mol
22,ATGGTCACGTGGGGAA,0.01 kcal/mol
